From the BET-seq Pho4 binding data (Le et al. 2018) come the findings set out here.

The list shows a part of the results. These are noisy estimates, calculated here from bound and input reads.

The assay concerns the target T1, Pho4 (S. cerevisiae) (UniProt P07270).
T1 sequence: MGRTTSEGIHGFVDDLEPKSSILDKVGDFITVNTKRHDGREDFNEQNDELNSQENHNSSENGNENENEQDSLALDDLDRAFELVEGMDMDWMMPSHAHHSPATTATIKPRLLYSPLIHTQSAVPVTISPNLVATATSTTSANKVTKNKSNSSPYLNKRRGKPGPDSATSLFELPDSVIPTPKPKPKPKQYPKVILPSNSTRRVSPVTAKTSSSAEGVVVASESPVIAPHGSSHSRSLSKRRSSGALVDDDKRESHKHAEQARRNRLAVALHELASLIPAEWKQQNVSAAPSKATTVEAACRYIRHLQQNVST
Nature of the assay: relative binding free energy (BET-seq); higher = weaker binding. To be noted: reference: library average.
In the case of TTGATCACGTGTTACG, the “relative binding free energy” value is 0.29 kcal/mol. For GAGGCCACGTGGGGCG the value was -0.22 kcal/mol. For TGGGACACGTGGGCGG the value was -0.09 kcal/mol; for CAGTTCACGTGGTTAG, 0.11 kcal/mol; for GATGCCACGTGGTGTT, -0.17 kcal/mol.

Regarding AATGGCACGTGGCGTC, the “relative binding free energy” value was found to be 0.05 kcal/mol.

For TGTCGCACGTGGGAAG, the “relative binding free energy” value was -0.01 kcal/mol. For TAAAGCACGTGGAGTA the value was -0.02 kcal/mol; for TATGCCACGTGTTGAG, 0.06 kcal/mol; for CGGGCCACGTGTGGGG, 0.01 kcal/mol.

With GTCATCACGTGGGGTT, the “relative binding free energy” value worked out at 0.08 kcal/mol. For AGATGCACGTGTGGCT the value was 0.07 kcal/mol; for TTCGCCACGTGGGGTT, -0.18 kcal/mol; for TGCGGCACGTGGGTTC, -0.19 kcal/mol. Take ATTATCACGTGATGGG: the “relative binding free energy” value came out at 0.32 kcal/mol. In the case of CTTTGCACGTGTTCTT it was -0.13 kcal/mol; in that of CGACACACGTGGGTGG, -0.03 kcal/mol; in that of GCAATCACGTGGTGTG, 0.14 kcal/mol. In the case of TGAAACACGTGGGGTT it was -0.02 kcal/mol; in that of GTAAACACGTGTCGTT, 0.15 kcal/mol. For TATAACACGTGAGGCT, the “relative binding free energy” value was found to be 0.28 kcal/mol. For GAGTACACGTGGGGCT the value was 0.06 kcal/mol; for TTAGACACGTGAGAGT, 0.09 kcal/mol. ATGTGCACGTGGGTAG: the “relative binding free energy” value is -0.14 kcal/mol. For TTAAGCACGTGAGCGG the value was 0.21 kcal/mol; for AAAATCACGTGTTGTG, 0 kcal/mol.

On to TGCTACACGTGAGCGG, for which the “relative binding free energy” value turned out to be 0.44 kcal/mol. For TTTGTCACGTGTTGGA the value was 0.25 kcal/mol. In the case of AGGGCCACGTGGAGTA it was -0.24 kcal/mol. As to GGTGACACGTGGATGA, the “relative binding free energy” value stood at 0.13 kcal/mol. For GGGGTCACGTGGAGGG the value was 0.14 kcal/mol; for GTTTGCACGTGAGCAG, 0.3 kcal/mol. In the case of TGTCACACGTGGAGTG it was -0.06 kcal/mol. In the case of TTTGGCACGTGTGCAC it was -0.06 kcal/mol; in that of GTGTGCACGTGTCATT, 0.04 kcal/mol; in that of TCTTTCACGTGATGAT, 0.33 kcal/mol. Consider ATTTTCACGTGTCTCT, for which the “relative binding free energy” value worked out at 0.34 kcal/mol.

GATTTCACGTGGTGAA: the “relative binding free energy” value is 0.14 kcal/mol. In the case of ATTGTCACGTGTAATA it was 0.2 kcal/mol; in that of GTGTTCACGTGTGAGC, 0.35 kcal/mol. In the case of CTTTGCACGTGTTGTG it was -0.07 kcal/mol. For GATTGCACGTGCGAGT the value was 0.04 kcal/mol; for GTGATCACGTGCAGGT, 0.1 kcal/mol. As to GGGGTCACGTGGTCGT, the “relative binding free energy” value turned out to be 0.03 kcal/mol. For TAGAGCACGTGTCAGG the value was -0.16 kcal/mol; for AACTGCACGTGGCGGG, -0.04 kcal/mol.

For TGCGACACGTGTTTAT, the “relative binding free energy” value was 0.01 kcal/mol. For ATGGGCACGTGAGGTT the value was 0.07 kcal/mol. As for GTCGGCACGTGTAGGG, the “relative binding free energy” value is -0.06 kcal/mol.

As to GATATCACGTGCGTTT, the “relative binding free energy” value was 0.35 kcal/mol.

Take TTTGGCACGTGTGTAG: the “relative binding free energy” value was -0.12 kcal/mol. In the case of TGATGCACGTGGTTGT it was 0.01 kcal/mol; in that of GCCCGCACGTGGGGTG, -0.29 kcal/mol.

As to ATTAACACGTGTTCTT, the “relative binding free energy” value worked out at 0.04 kcal/mol. For GTTGTCACGTGTTGTA the value was 0.05 kcal/mol.

AGCAGCACGTGTAGGT: the “relative binding free energy” value is -0.06 kcal/mol. For CCGGTCACGTGTTGTG the value was -0.04 kcal/mol; for TGTCTCACGTGAGCTT, 0.32 kcal/mol. For CCGGGCACGTGGGGCG, the “relative binding free energy” value was -0.28 kcal/mol. In the case of TTGAACACGTGGTGGA it was 0.04 kcal/mol. TTCGTCACGTGGGCGC: the “relative binding free energy” value was 0.06 kcal/mol. In the case of TATGACACGTGGGGAT it was -0.03 kcal/mol. ATTGTCACGTGCCTGT: the “relative binding free energy” value was -0.13 kcal/mol.

As to TTAGGCACGTGGGCTT, the “relative binding free energy” value was -0.28 kcal/mol. For AGTTTCACGTGGGGTC the value was 0.05 kcal/mol. GTGGACACGTGGCGGG: the “relative binding free energy” value turned out to be 0.01 kcal/mol. In the case of CGTTGCACGTGGTATA it was -0.15 kcal/mol; in that of TGATACACGTGTGGGG, 0.12 kcal/mol; in that of GGAGTCACGTGGGGCG, 0.03 kcal/mol.

On to GTGCGCACGTGGGAGG, for which the “relative binding free energy” value was -0.15 kcal/mol. For ATATTCACGTGCGGTG the value was 0.27 kcal/mol.

With TTCGTCACGTGTTGAA, the “relative binding free energy” value amounted to 0.02 kcal/mol.

Turning to TGGAACACGTGTAGTC, the “relative binding free energy” value worked out at 0.15 kcal/mol.

For the sequence CGAAGCACGTGGGAGT, the “relative binding free energy” value is -0.17 kcal/mol. For TTAGGCACGTGGTTAC the value was -0.18 kcal/mol; for TGGATCACGTGTGAAA, 0.37 kcal/mol; for TTTGTCACGTGTACGG, 0.06 kcal/mol. For TGCATCACGTGTGTAT the value was 0.28 kcal/mol. For ATTGTCACGTGGCGCG the value was 0.16 kcal/mol; for CTTTGCACGTGGTAGT, -0.09 kcal/mol.

Regarding CGGAGCACGTGGACGG, the “relative binding free energy” value was -0.01 kcal/mol. For TCAAGCACGTGTGTTA the value was 0.02 kcal/mol. For TTTTGCACGTGCCGGT the value was -0.18 kcal/mol. Regarding TTTGGCACGTGGTTCA, the “relative binding free energy” value is -0.25 kcal/mol. For TGATACACGTGCGGTT, the “relative binding free energy” value is 0.03 kcal/mol. In the case of ATGTTCACGTGTTAAT it was 0.3 kcal/mol; in that of TGGGGCACGTGATGCG, -0.03 kcal/mol. Take AAGGTCACGTGGATAT: the “relative binding free energy” value is 0.16 kcal/mol.

As to TGATTCACGTGTGGTC, the “relative binding free energy” value came out at 0.3 kcal/mol. In the case of TCTGGCACGTGTGAGA it was -0.05 kcal/mol; in that of AGTCACACGTGATGTT, 0.18 kcal/mol. In the case of GTAAACACGTGTTAGG it was 0 kcal/mol; in that of AGAGGCACGTGCCGGG, -0.3 kcal/mol. For TGGGGCACGTGGGTCT the value was -0.14 kcal/mol. Consider ATGAACACGTGGGTTA, for which the “relative binding free energy” value is -0.11 kcal/mol. Regarding AGTAACACGTGGTTGC, the “relative binding free energy” value is -0.11 kcal/mol. AGAGTCACGTGTAAAT: the “relative binding free energy” value came to 0.37 kcal/mol. In the case of GTTATCACGTGGTAGC it was 0.06 kcal/mol; in that of AGATACACGTGTTGAT, -0.06 kcal/mol; in that of TGTCACACGTGCTGTG, -0.05 kcal/mol.

For the sequence GTGACCACGTGTGGTG, the “relative binding free energy” value is 0.11 kcal/mol. In the case of AGGCACACGTGGTTGA it was -0.03 kcal/mol; in that of GAAATCACGTGATTGT, 0.47 kcal/mol.

For the sequence TTTTACACGTGCGGCG, the “relative binding free energy” value stood at 0.19 kcal/mol. For TTTAGCACGTGACTGA the value was 0.08 kcal/mol; for TGTTCCACGTGGGGAT, -0.14 kcal/mol. As to TTATACACGTGCGTTT, the “relative binding free energy” value is -0.17 kcal/mol. In the case of TGGGTCACGTGGAATA it was 0.22 kcal/mol. For CTGTGCACGTGGCGGA the value was -0.13 kcal/mol; for TTGACCACGTGGTATG, -0.08 kcal/mol. For ACGGTCACGTGTTATG the value was 0.1 kcal/mol. For GCTGACACGTGCGTGG, the “relative binding free energy” value was -0.02 kcal/mol. For AGGAACACGTGGACTG the value was 0.21 kcal/mol. In the case of TTGTACACGTGTGATA it was 0.09 kcal/mol; in that of GTAGGCACGTGTCTTG, -0.1 kcal/mol.
